Out of some 310,000 compounds screened, about 11,000 (3.5%) were called active. The inconclusive results got no clear call from the source; some entries with a clear call stand among them for comparison. The call rests on the fitted dose curve; in most records, active means well fitted inhibition curve with a large enough effect; inconclusive means small, poorly fitted or top-dose-only effect, or effect the other way; inactive means flat fitted curve, though single readings scatter. No potency is given beside an inconclusive call; the fits are too rough.
test: VP16 counterscreen qHTS for inhibitors of ROR gamma transcriptional activity; settings: Drosophila S2 Gal4-VP16 UAS-luciferase, luminescence, 20 h; activity, negative = inhibition: at 53.6 µM (top of the series);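 further: Gal4-VP16 expression switched on by copper sulfate through the metallothionein promoter; nearly all actives have a fitted effect of over 50% in size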
On the % scale 0 is the no-effect control and ±100 the full control effect; potency means the concentration at half of the fitted maximal effect; tags describe the fitted curve by direction and shape.

Structure (SMILES)	Potency	activity, negative = inhibition
Cc1ccc(C(=O)Cc2nnc(C)s2)cc1	inconclusive [inhibitor, single point]	
CC(C)Oc1cccc(C(=O)NC(=S)Nc2ccccc2N2CCOCC2)c1	active: 5.62 µM	
CCC(O)CNC(=O)NC(=C(Cl)Cl)c1ccc(C)c(F)c1 (stereo unspecified)	inconclusive [inhibitor, single point]	
CCC1=NN(C(=O)c2ccc([N+](=O)[O-])cc2)C(O)(c2ccccc2)C1 (stereo unspecified)	inconclusive [inhibitor, single point]	
CCCC(c1nnnn1C(C)(C)C)N1CCN(C(=O)c2ccco2)CC1 (stereo unspecified)		inactive: -19.1%
CC(C)(C)n1ncc2c(=O)n(CC(=O)NCc3ccco3)cnc21	inconclusive [inhibitor, partial curve]	
Cc1cccc(NC(=S)NCc2cccs2)c1	inconclusive [inhibitor, single point]	
CCNC(=S)Nc1cc2oc3ccccc3c2cc1OC		inactive: 14.5%
Cc1cc(C)c(/C([O-])=C(/C(=S)Nc2ccc(SC(F)F)cc2)[n+]2ccccc2)cc1C		inactive: -10.9%
C=COc1ccc(N2C(=O)c3ccccc3OC2C)cc1 (stereo unspecified)		inactive: -2.94%
Cc1ccc(NC(=O)NCCN2C(=O)C3C4C=CC(C4)C3C2=O)cc1 (stereo unspecified)	inconclusive [inhibitor, single point]	
COc1ccc(C(=O)/C=C2\Sc3ccccc3N2C)cc1	inconclusive [inhibitor, single point]	
O=C(Nc1nnc(C2COc3ccccc3O2)o1)c1ccc(F)cc1 (stereo unspecified)	active: 0.562 µM	
CN(C)S(=O)(=O)c1cccc(NC(=S)N/N=C/C(=O)c2ccccc2)c1	inconclusive [inhibitor, single point]	
O=C(N/N=C/c1c[nH]c2ccccc12)c1cccc([N+](=O)[O-])c1	inconclusive [inhibitor, single point]	
Cc1cc2nc(-c3ccc(SCC(=O)N4CCOCC4)nc3)[nH]c2cc1C	inconclusive [inhibitor, single point]	
CC(C)(C)OC(=O)NCCCC[C@H](NC(=O)c1nc[nH]c1C(=O)N1CCN(c2ccccc2)CC1)C(=O)OC(C)(C)C	inconclusive [inhibitor, single point]	
Cc1ccc(NC(=O)c2ccc3c(c2)OCCO3)cc1C	inconclusive [inhibitor, partial curve]	
N=c1c2c(-c3ccccc3)c(-c3ccccc3)n(Cc3ccco3)c2ncn1CCCO	active: 3.16 µM	
O=C(/C=C/c1ccc(Cl)cc1Cl)Nc1cccc(S(=O)(=O)NC2=NCCC2)c1	active: 8.91 µM	
Cc1ccc2sc(NC(=O)CSc3nc(C)cc(C)c3C#N)nc2c1	inconclusive [inhibitor, full curve]	
Cn1cc(-c2nc3cnc(N4CCNCC4)nc3n(CCc3ccccc3)c2=O)c2ccccc21	inconclusive [inhibitor, single point]	
CCOC(=O)C1CCCN(C(=S)Nc2cccc(Cl)c2)C1 (stereo unspecified)	inconclusive [inhibitor, partial curve, poor fit]	
O=C(COC(=O)c1ccccc1C(=O)c1ccccc1)Nc1ccc(SC(F)F)cc1	inconclusive [inhibitor, single point]	

Structure (SMILES)	Potency	activity, negative = inhibition
CCNC(=S)N1CCn2c(nc3ccccc32)C1	inconclusive [inhibitor, single point]	
O=C(CCCn1c(=S)[nH]c2cc3c(cc2c1=O)OCO3)NCc1cccc(Cl)c1	inconclusive [inhibitor, single point]	
CCc1sc(N)nc1-c1ccccc1	inconclusive [inhibitor, single point]	
CCC(=O)NC(c1cccs1)c1ccc2cccnc2c1O (stereo unspecified)	active: 1.12 µM	
Cc1ccc(COc2cccc3c2CCN(Cc2ccc(F)cc2)C3=O)cc1	inconclusive [inhibitor, partial curve]	
COc1cc(/C=C/C(=O)Nc2ccccc2C(F)(F)F)cc(OC)c1OC		inactive: -3%
O=C(N/N=C/c1ccc2c(c1)OCO2)c1cc(-c2ccc(F)cc2)nc2ccccc12	inconclusive [inhibitor, partial curve]	
Cc1ccc(-c2csc3nc[nH]c(=S)c23)cc1	active: 0.0141 µM	
Cc1ccc(S(=O)(=O)NC2=C(N3CCN(c4ccccc4F)CC3)C(=O)c3ccccc3C2=O)cc1		inactive: -9.17%
COc1cccc(Oc2ccc(C(F)(F)F)cc2N)c1	inconclusive [inhibitor, single point]	
COC(=O)C1=NN(C(=O)c2ccc(Cl)cc2)C(O)(c2ccccc2)C1 (stereo unspecified)	inconclusive [inhibitor, single point]	
CCOC(=O)C1CCCN(c2c(C(=O)c3ccccc3)cnc3ccc(OC)cc23)C1 (stereo unspecified)	inconclusive [activator, partial curve]	
Nc1c2nc(-c3ccccc3)[nH]c(=O)c2nc(=O)n1-c1ccccc1	inconclusive [inhibitor, single point]	
COc1ccc(C(=O)N2CCCC(CNC(=O)c3ccccc3Cl)C2)o1 (stereo unspecified)	inconclusive [activator, partial curve]	
COc1ccccc1OCCSc1nc2ccc([N+](=O)[O-])cc2s1	inconclusive [activator, single point]	
CC(C)c1ccc(NC(=S)NNC(=O)c2cccnc2)cc1	inconclusive [inhibitor, single point]	
Cc1cccc(C)c1Nc1nc2ccccc2o1	inconclusive [inhibitor, single point]	
C/C(CCC(C)C)=N\NC(=S)NCc1ccccc1	inconclusive [inhibitor, single point]	
N#Cc1c(NC(=O)c2ccccc2Cl)n(Cc2ccccc2)c2nc3ccccc3nc12	inconclusive [inhibitor, partial curve, poor fit]	
CC[n+]1c(/C=C(\C)SC)sc2ccccc21	inconclusive [inhibitor, single point]	
O=C(CN1CCCN(Cc2ccc(F)cc2Cl)C1=O)NCc1ccccc1		inactive: -3.39%
O=C(Nc1ccc2c(c1)OCO2)C1CC(c2c(F)cccc2Cl)=NO1 (stereo unspecified)	inconclusive [inhibitor, single point]	
O=C(O)c1ccc(S(=O)(=O)c2ccc3c(c2)C(=O)N(NC(=O)c2ccccc2)C3=O)cc1	inconclusive [activator, single point]	
O=C1CC(c2ccc(F)cc2)Sc2nc(C34CC5CC(CC(C5)C3)C4)nn21 (stereo unspecified)	inconclusive [inhibitor, single point]	

Structure (SMILES)	Potency	activity, negative = inhibition
O=S(=O)(N1CCOCC1)N1CCCN(S(=O)(=O)N2CCOCC2)CC1		inactive: -1.87%
CCc1ccc(NC2=NCC(c3ccccc3)S2)cc1 (stereo unspecified)	inconclusive [inhibitor, single point]	
CCOc1ccc(NC(=S)NC(=O)c2ccco2)cc1	inconclusive [inhibitor, single point]	
O=C(Nc1ccc(S(=O)(=O)N2CCCCC2c2cccnc2)cc1)c1ccccc1F (stereo unspecified)	inconclusive [inhibitor, single point]	
O=C(NCCCNCCCNC(=O)c1ccc(/C=N/O)nc1)c1ccc(/C=N/O)nc1		inactive: -4.22%
CC(=O)Nc1nc(COc2ccc3ccccc3c2)cs1	inconclusive [inhibitor, single point]	
Cc1ccc(OCC(=O)Nc2cccnc2Cl)cc1C		inactive: 0.582%
COCCn1c(C)cc(C(=O)CSc2cc(C)c3ccc(OC)cc3n2)c1C	active: 2.24 µM	
CC(C)OCCOc1ccc2oc(-c3ccco3)cc(=O)c2c1	inconclusive [activator, full curve]	
Cc1cc(Cl)cc(Cl)c1OCC(=O)NCc1ccco1	inconclusive [inhibitor, single point]	
CCCc1[nH][nH]c(=O)c1C(c1cccc(Cl)c1)C(C#N)C#N (stereo unspecified)		inactive: 8.88%
COC(=O)CSc1nnc(-c2sc3cc(OC)ccc3c2Cl)n1C		inactive: -2.36%
O=C(NC(=S)NCC1CCCO1)C(c1ccccc1)c1ccccc1 (stereo unspecified)	active: 6.31 µM	
Cn1nccc1C(=O)NC(=S)Nc1cc(Cl)cc(Cl)c1	active: 12.6 µM	
Cc1ccc(-c2cc(C(=O)Nc3nccs3)c3ccccc3n2)o1	inconclusive [inhibitor, single point]	
O=Nc1c2nc3ccccc3n(O)c-2c2ccccc12	inconclusive [inhibitor, full curve]	
NC(=O)N/N=C(/CCCCCC/C(=N\NC(N)=O)c1ccccc1)c1ccccc1	inconclusive [inhibitor, partial curve]	
COc1ccc(NC(=S)NC(=O)Cc2ccccc2)cc1	active: 7.08 µM	
Cc1ccn(S(=O)(=O)c2ccc(C(C)(C)C)cc2)n1	inconclusive [inhibitor, single point]	
O=C(CN1CCN(c2ccc(F)cc2)CC1)N1CCC(Cc2ccccc2)CC1	inconclusive [inhibitor, single point]	
CCC(C)C(NC(=O)c1ccc(Cl)cc1Cl)C(=O)O (stereo unspecified)		inactive: 0.253%
Cn1c(N)c(C(=O)COC(=O)c2ccc(Cl)c(S(=O)(=O)N3CCCC3)c2)c(=O)n(C)c1=O	inconclusive [inhibitor, partial curve, poor fit]	
CC(C)NC(=S)N/N=C1\CCCc2ccccc21	active: 3.98 µM	
